Whole data set: some 13,000 compounds, median “IFI” near 4, cut for the highest 2% near 17. The list shows a part of the results.

The record followed here is ChEMBL document CHEMBL1157539, “Thousands of chemical starting points for antimalarial lead identification” (Nature, 2010).

The nature of this experiment: GSK_TCMDC: Inhibition Frequency Index (IFI). The number of non-kinase HTS assays where a compound showed > 50 % inhibition, expressed as a percentage of the number of such assays in which the compound was tested (-0 is zero). The experiment is classed as functional.
`COc1ccc2nccc([C@@H](O)CN3CCC(NCc4ccc5c(n4)NC(=O)CS5)C(F)C3)c2c1` (stereo not given in full) displayed an IFI of 2.44%.

For the compound `CC(C)Cn1cc(C2CCN(CCN3CCC(CNC(=O)c4ccc(-c5ccc(C#N)cc5)cc4)CC3)CC2)c2ccccc21`, the IFI stood at 7.34%.

For the compound `CC(C)(C)CCN1CCC(CNC(=O)c2cc(-c3cccc(Cl)c3)cs2)C1` (stereo not given), the IFI worked out at 9.8%.

`O=C(Nc1ccc2c(c1)OCO2)NC1CCN(c2ccnc(Nc3ccc(F)cc3)n2)C1` (stereo not given) had an IFI of 1.52%.

On to `NC1CCN(c2nc(NCCCc3ccc(O)cc3)nc(NCc3ccccc3-c3ccccc3)n2)CC1`, for which the IFI stood at 13.6%.

Consider `Cc1c(Cl)cccc1N=C(S)NN=Cc1ccccn1`, for which the IFI came out at 6.3%.

In the case of `CCCCCCNC(=O)C1Cc2c([nH]c3ccccc23)C2(CCN(CCc3ccccc3)CC2)N1` (stereo not given), the IFI is 8.63%.

As to `CN(C)c1ccc(CN2CCC(NC(=O)c3ccc(-c4ccccc4F)s3)CC2)cc1`, the IFI came to 8.77%.

Compound `NC(=O)c1ccccc1Nc1nc(Nc2cccc(N3CCN(CCO)CC3)c2)ncc1Cl` had an IFI of 7.14%.

The compound `C=CCn1c(SCC(=O)Nc2cc(Cl)ccc2Cl)nc2sc(C)cc2c1=O` returned an IFI of 5.08%.

The compound `CC(Nc1ccc2c(c1)CCC2)C(=O)Nc1cc(C(F)(F)F)ccc1N1CCOCC1` (stereo not given) had an IFI of 2.08%.

`O=C(NC1CC1)c1ccc(N2CCCC(COc3ccccc3F)C2)nc1` (stereo not given) had an IFI of 0%.

The compound `COc1ccccc1N1CCN(C(C(=O)NCc2ccc(C)cc2)c2ccc(C)cc2)CC1` (stereo not given) registered an IFI of 2.07%.

In the case of `O=C(NCCCCN1CCN(c2cccc3ccccc23)CC1)c1ccc(NC(=O)c2ccc(Cl)cc2)cc1`, the IFI is 5.17%.

Take `COc1ccc(N2CCN(CCCCNCc3ccc(NC(=O)c4cc(Cl)cc(Cl)c4)cc3)CC2)c(OC)c1`: the IFI worked out at 10.3%.

For the compound `COC(=O)c1cccc(CNCc2cccc(-c3csc(-c4nc5ccccc5[nH]4)c3)c2)c1`, the IFI was determined as 7.62%.

Compound `CCN1C(=O)C(=NN=C(S)N2CCCC2)c2ccccc21` came in with an IFI of 4.32%.

As for `O=C(NCCCCCN1CCC(c2c[nH]c3ccccc23)CC1)Nc1cccc(C(F)(F)F)c1`, the IFI turned out to be 4.9%.

`O=C(NCCN1CCCCC1)c1ccc(CNC(=O)c2ccc(O)c(-c3cccc(C(F)(F)F)c3)c2)cc1` gave an IFI of 1.47%.

`CC(C)(C)NCc1cc(Nc2ccnc3cc(Cl)ccc23)ccc1F` returned an IFI of 15.2%.

As to `CCCc1cc(C(=O)N[C@@H](Cc2ccccc2)[C@H](O)CNC(C)C)c(F)c(N2CCCC2=O)c1`, the IFI is 0.72%.

`COc1ccc(-c2ccc(NC(=O)c3ccc(C#N)cc3)c(F)c2)cc1CN(C)CCN(C)C`: the IFI came to 1.2%.

The compound `O=C(COc1ccccc1)Nn1cnc2ccccc21` showed an IFI of 1.72%.

`Cc1ccccc1C(=O)Nc1cccc(-c2nc3ncccn3c2C)c1` came in with an IFI of 1.45%.

The compound `Cc1nc(-c2cccc(C(F)(F)F)c2)n2nc(Nc3ccc(OCCN4CCCC4)cc3)ncc12` displayed an IFI of 5.47%.

Compound `CCOc1ccc2c(c1)OC(c1ccccc1)(C(F)(F)F)NC2=O` (stereo not given) gave an IFI of 1.39%.

`O=C(NOCCOc1ccccc1)c1ccccc1` displayed an IFI of 1.52%.

Regarding `COc1ccc(C2CCN(CCCNC(=O)c3ccc(NC(=O)c4ccc(Cl)cc4)cc3)CC2)c(OC)c1`, the IFI is 4.59%.

For `COc1ccc(CNC(=O)c2cnc3cc(-c4c(C)noc4C)ccc3c2Nc2ccccc2C(C)(C)C)cc1`, the IFI turned out to be 3.45%.

Compound `Nc1nc(N)c2c(ccc3c2ccn3Cc2cccc(F)c2)n1` came in with an IFI of 10.1%.

With `CC1CN(c2ccc3[nH]cc(Sc4ccc(-c5cccs5)cc4)c3c2)CC(C)N1` (stereo not given), the IFI was found to be 13.1%.

Turning to `Cn1cncc1-c1ccc2c(-c3ccsc3)cnc(N)c2c1`, the IFI was 3.7%.

In the case of `c1ccc(CN2CCC(Nc3ccc(-c4c[nH]nc4-c4ccccn4)nc3)CC2)cc1`, the IFI came to 2.54%.

As to `CCCCn1c(C(C)Oc2ccc(Cl)cc2Cl)nc2cc(S(N)(=O)=O)ccc21` (stereo not given), the IFI stood at 4.23%.

`O=C(NC1CCN(c2ccnc3cc(Cl)ccc23)C1)c1ccccc1F` (stereo not given) showed an IFI of -0%.

`Cc1cccc2nc(-c3ccc(-c4ccc(CN5CCCC5CN)cc4)cc3)[nH]c12` (stereo not given) gave an IFI of 7%.

`C=CCOC(=O)N1CCC(CNCc2ccc(-c3cccc(-c4nc5ccccc5[nH]4)c3)cc2)C1` (stereo not given) yielded an IFI of 3.88%.

The compound `Cc1ccccc1Nc1cc(Nc2ccccc2C)c2ccccc2n1` gave an IFI of 16.6%.

Turning to `COc1ccc(C2N=C(N)N=C(N)N2OCc2ccccc2)cc1OC` (stereo not given), the IFI is 0.73%.

Consider `Cc1nc2ccccc2c(O)c1[N+](=O)[O-]`, for which the IFI amounted to 0%.

For `COc1ccc(-c2nc3cc4ccccc4nc3[nH]2)c(OCC(O)CNC(C)C)c1` (stereo not given), the IFI was 1.57%.

The compound `CCN(CCCNc1nc(=S)[nH]c2cc(OC)c(OC)cc12)c1ccccc1` registered an IFI of 3.36%.

As for `CN1CCN(Cc2cccc(-c3cc4nccc(Nc5ccc(Oc6ccccc6)cc5)c4cc3Cl)c2)CC1`, the IFI came to 5.76%.

`Cc1cc(-c2cccc3c(C(=O)N4CCc5cc6nccc(N7CCCN(C)CC7)c6cc54)cccc23)cc(C)n1` showed an IFI of 4.93%.

`Cc1nn(-c2ccccc2)nc1C(=O)NC1CCN(CCNC(=O)c2ccc(Cl)c(Cl)c2)CC1` yielded an IFI of 2.04%.

`O=C(Cc1ccc(-c2ccccc2)cc1)N[C@H]1CCN(Cc2ccc(OCCCN3CCCCC3)cc2)C1` yielded an IFI of 7.53%.

`Cc1ccccc1C1CCN(C2CCC(NC(=O)c3cc4cc(Cl)ccc4o3)CC2)CC1` (stereo not given) yielded an IFI of 6.78%.

As for `Cc1noc(C)c1-c1ccc2c(Nc3ccccc3N3CCOCC3)c(C(=O)NCc3ccccc3)cnc2c1`, the IFI was 12.8%.

`Clc1cc(Nc2ccnc3ccc(Br)cc23)ccc1Oc1ccc2ccccc2c1Cl`: the IFI worked out at 0.79%.

On to `CC(=O)c1cccc(NC(=O)N2CCCN(CCCCCNC(=O)/C=C/c3ccc(Cl)c(Cl)c3)CC2)c1`, for which the IFI was 2.7%.

Compound `CCCCCCN1CCC(NCc2ccc(OCCN3CCCC3)cc2)CC1` registered an IFI of 4%.

In the case of `CN(C)Cc1c(O)ccc2[nH]c(-c3ccc(F)cc3F)nc12`, the IFI is 3.61%.

As for `Cc1ccc(O)cc1Nc1c(C(N)=O)cnc2ccc(-c3cncs3)cc12`, the IFI came out at 5.11%.

`Cc1cc(N2CCOCC2)nc(Nc2ccc(NC(=O)Nc3ccc(F)cc3)cc2)n1` returned an IFI of 3.92%.

For the compound `CC1(C)C(=O)Nc2ccccc2N1C(=O)CN1CCN(c2ccccc2O)CC1`, the IFI is -0%.

Compound `CCCC(CCC)n1ccc2c3c(N)nc(N)nc3ccc21` had an IFI of 8.97%.

`FC(F)(F)c1ccc2[nH]ccc(=NN=Cc3cccnc3)c2c1` came in with an IFI of 0%.

On to `Cc1ccc2nc(C)n(C3CCN(C(=O)Cc4ccccc4C)CC3)c2c1`, for which the IFI is -0%.

Consider `COc1cc(Cc2c(C)nc3nc(N)nc(N)c3c2C)c(Br)c(OC)c1OC`, for which the IFI worked out at 1.46%.

For `CC(C)Oc1cc2c(cc1NS(=O)(=O)c1ccc(-c3ccc(Cl)cc3)cc1F)CCN(C)CC2`, the IFI was determined as 9.52%.

Take `Fc1ccc2[nH]cc(CCNCc3ccc(-c4cccc(-c5nc6ccccc6[nH]5)c4)cc3)c2c1`: the IFI was determined as 17.8%.

`N#Cc1ccc2c(c1)CCN(CCC1CCC(NC(=O)/C=C/c3ccc(Cl)c(Cl)c3)CC1)CC2` (stereo not given) registered an IFI of 8.11%.

Compound `CCOc1cc(C(=O)NC2CC(C)(C)N(C)C(C)(C)C2)ccc1-c1nc2cc(Cl)c(Cl)cc2[nH]1` yielded an IFI of 6.98%.

As for `CC(CN(C)C)C(=O)Nc1ccc(-c2ccc(-c3nc4cc(F)ccc4[nH]3)cc2)cc1` (stereo not given), the IFI stood at 3.42%.

Turning to `CCC(CSC1CCCCC1)N(C)CCN(C)C(CC)CSC1CCCCC1` (stereo not given), the IFI was found to be 12.4%.

Compound `CCCCN(Cc1cccc(C(F)(F)F)c1Cl)c1ccc(C(O)(C(F)(F)F)C(F)(F)F)cc1` gave an IFI of 4.38%.

`Cc1ccc(O)cc1Nc1ccnc2cc(-c3csc(CNCCN4CCOCC4)n3)ccc12` showed an IFI of 4.17%.

In turn, `O=C(NC(=S)Nc1cc(C(F)(F)F)cc(C(F)(F)F)c1)c1ccc(Cl)cc1` returned an IFI of 4.38%.

Compound `CCCCOc1cc(OC)c2ccccc2c1CCNCCCCNCCc1c(OCCCC)cc(OC)c2ccccc12` had an IFI of 19.1%.

The compound `Cc1cccc(C)c1CNc1ccnc2cc(Br)ccc12` returned an IFI of 0%.

As for `CCCC(C)NC(=O)/C=C/c1ccccc1-c1cccc(OC)c1` (stereo not given), the IFI worked out at 2.94%.

`CCCCCCCN1CC[C@@H](CCC(O)c2ccnc3ccc(OC)cc23)[C@@H](CC)C1` (stereo not given in full) displayed an IFI of 9.22%.

In the case of `Cc1ccc2nc(C)cc(Nc3ccccc3O)c2c1`, the IFI is -0%.

As for `O=c1cc(NCCCNCc2[nH]c3cc(Cl)cc(Cl)c3c2Cn2cccn2)[nH]c2ccccc12`, the IFI amounted to 5%.

For the compound `Cn1nc(-c2ccc(NC(=O)Nc3cc(C(F)(F)F)ccc3F)c(F)c2)c2cnc(NCCCN3CCOCC3)nc21`, the IFI is 6.57%.

Turning to `Cc1n[nH]c2cc(Nc3ccnc(Nc4ccc(CN5CCOCC5)cc4)n3)ccc12`, the IFI stood at 5.36%.

With `CCCCCCCCc1c(C)[nH]c(C)c(Cl)c1=O`, the IFI was 6.57%.

`CN1CCCC1CCNCc1cccc(-c2cnc(N(C)C3CCCCC3)nc2)c1` (stereo not given) registered an IFI of 11%.

Take `Cc1ccc2c(Cl)c(C(=O)N3CCCc4ccccc43)sc2c1`: the IFI was found to be 2.1%.

In turn, `Cc1c(CC(=O)N(C)C2CCN(CCCCCNC(=O)/C=C/c3ccc(Cl)c(Cl)c3)CC2)sc2ccc(Cl)cc12` yielded an IFI of 7.97%.

As for `CC(C)C[C@@H](C(=O)N[C@@H](CCCCNC(=O)OCc1ccccc1)C(=O)Nc1nccs1)[C@H](C)N(O)C=O`, the IFI stood at 1.41%.

Compound `Cc1c(CCC#N)c(NCc2ccccc2)n2c(nc3ccccc32)c1C#N` registered an IFI of 1.38%.

Compound `O=C(Nc1ccc(Cl)cc1)Nc1ccc(Cn2ncc(N3CCCNCC3)c(Cl)c2=O)cc1` registered an IFI of 8.82%.

On to `CC(C)NC(=N)NN=Cc1ccc(Cl)c(Cl)c1`, for which the IFI is 1.48%.

For the compound `CCOC(=O)COc1cccc(CNc2ccc3nc(N)nc(N)c3c2)c1`, the IFI worked out at 4.2%.

`O=C(COc1ccccc1)N(Cc1ccc(-c2ccc(CNC3Cc4ccccc4C3)cc2)cc1)C1CCNCC1` had an IFI of 3.55%.

Take `c1cn(-c2ccc(CNc3nccc(Nc4ccc(OCCN5CCOCC5)cc4)n3)cc2)cn1`: the IFI is -0%.

Turning to `C=CCc1cc(SC)ccc1Oc1ccc(N)cc1`, the IFI is 2.17%.

For `Cc1ccc(NC(=O)c2ccc(CN3CCCN(CC4CCCCC4)CC3)cc2)cc1`, the IFI was determined as 9.6%.

Take `Cc1cc(NCC(C)C)c2[nH]nc(-c3ccccc3)c2n1`: the IFI came to 2.1%.

Consider `CN1CCC[C@@H](Oc2cc3c(cc2Br)CCN3C(=O)Nc2ccc(-c3ccncc3)c(Cl)c2)C1`, for which the IFI is 7.91%.

As to `COc1ccc(NC(=O)/C=C/c2ccccc2Cl)cc1OCCN1CCC(NCc2ccccc2)CC1`, the IFI amounted to 2.88%.

`Cc1ccc2nc(N/C(N)=N/C(=O)NC3CCCCC3)nc(C)c2c1` came in with an IFI of 3.42%.

Regarding `c1cc(CNc2ncc(-c3ccsc3)c(-c3nccs3)n2)ccn1`, the IFI was determined as 6.67%.

The compound `Fc1cc(Cl)ccc1Nc1ccnc2cc(-c3ccc(CN4CCCCC4)o3)ccc12` yielded an IFI of 7.3%.
